The list shows a part of the results.
Key:
[1] = system: HSkMC (human skeletal muscle cells); assay: cytotoxicity call (relative viability < 0.9); conditions: 10 µM
[2] = system: S. aureus RN4220; assay: growth inhibition call (relative growth <= 0.2); conditions: 50 µM

In the case of COc1c(O[C@@H]2O[C@H](CO)[C@@H](O)[C@H](O)[C@H]2O)cc2oc(-c3ccc(O)c(O)c3)c(O)c(=O)c2c1O, the cytotoxicity call [1] is reported as “inactive” and the growth inhibition call [2] is reported as “inactive”.
In the case of CO[C@@H]1CN(C)C(=O)c2cc(NC(=O)CC(F)(F)F)ccc2OC[C@@H](C)N(S(=O)(=O)c2cn(C)cn2)C[C@@H]1C, the cytotoxicity call [1] is reported as “inactive” and the growth inhibition call [2] is reported as “inactive”.
In the case of COC(=O)C[C@@H]1CC[C@@H]2[C@H](COC[C@H](O)CN2S(=O)(=O)c2ccccc2C)O1, the cytotoxicity call [1] is reported as “inactive” and the growth inhibition call [2] is reported as “inactive”.
Cc1cccc(S(=O)(=O)N2C[C@H](O)COC[C@@H]3O[C@@H](CC(=O)NCCCN4CCOCC4)CC[C@H]32)c1 was tested, and the cytotoxicity call [1] was “inactive” and the growth inhibition call [2] was “inactive”.
C[C@@H]1CN([C@@H](C)CO)C(=O)Cc2cc(NC(=O)C3CCCCC3)ccc2O[C@H]1CN(C)Cc1ccc(Cl)c(Cl)c1 was tested, and the cytotoxicity call [1] was “inactive” and the growth inhibition call [2] was “inactive”.
In the case of Cc1noc(C)c1NC(=O)N(C)C[C@H]1OCCCC[C@@H](C)Oc2ccc(NC(=O)CCC(F)(F)F)cc2C(=O)N([C@H](C)CO)C[C@H]1C, the cytotoxicity call [1] is reported as “inactive” and the growth inhibition call [2] is reported as “inactive”.
With COc1ccc(S(=O)(=O)Nc2ccc3c(c2)C(=O)N([C@@H](C)CO)C[C@@H](C)[C@H](CN(C)S(=O)(=O)c2ccccc2)O3)cc1 the cytotoxicity call [1] was “inactive” and the growth inhibition call [2] was “inactive”.
For Cc1ccnc(-n2c(C)ccc2C)c1, the cytotoxicity call [1] was “inactive” and the growth inhibition call [2] was “inactive”.
With C[C@@H]1CN([C@@H](C)CO)C(=O)c2cc(NC(=O)Nc3ccc(F)cc3)ccc2O[C@@H](C)CCCCO[C@@H]1CN(C)Cc1ccc(C(F)(F)F)cc1 the cytotoxicity call [1] was “inactive” and the growth inhibition call [2] was “inactive”.
With Cn1c(=O)c(=O)n(C)c2cc(S(=O)(=O)CCC(=O)NCc3ccccc3)ccc21 the cytotoxicity call [1] was “inactive” and the growth inhibition call [2] was “inactive”.
For Clc1ccc2c(c1)[C@H]1C=CC[C@@H]1[C@@H](c1ccccc1)N2, the cytotoxicity call [1] was “inactive” and the growth inhibition call [2] was “inactive”.
With COCC(=O)N1C[C@H](C)[C@H](OC)CN(C)C(=O)c2cc(NC(=O)c3ccc(OC)cc3)ccc2OC[C@@H]1C the cytotoxicity call [1] was “inactive” and the growth inhibition call [2] was “inactive”.
In the case of C[C@@H]1CCCCO[C@@H](CN(C)Cc2ccc(C(F)(F)F)cc2)[C@@H](C)CN([C@@H](C)CO)C(=O)c2cc(NC(=O)C3CCCCC3)ccc2O1, the cytotoxicity call [1] is reported as “inactive” and the growth inhibition call [2] is reported as “inactive”.
With C[C@@H]1CN([C@@H](C)CO)C(=O)c2cc(-c3cccnc3)cnc2O[C@H]1CN(C)C(=O)Nc1ccc2c(c1)OCO2 the cytotoxicity call [1] was “inactive” and the growth inhibition call [2] was “inactive”.
With C[C@@H](O)[C@@H](Nc1ncnc2ccccc12)C(=O)O the cytotoxicity call [1] was “inactive” and the growth inhibition call [2] was “inactive”.
For NC[C@@H](O)c1ccc2ccccc2c1, the cytotoxicity call [1] was “inactive” and the growth inhibition call [2] was “inactive”.
With Cc1noc(C)c1NC(=O)Nc1ccc2c(c1)CC(=O)N([C@@H](C)CO)C[C@H](C)[C@H](CN(C)Cc1ccc(-c3ccccc3)cc1)O2 the cytotoxicity call [1] was “inactive” and the growth inhibition call [2] was “inactive”.
For COc1ccccc1CN1C(=O)c2ccccc2[C@@]2(Cc3ccccc3N(Cc3ccccc3)C2=O)[C@@H]1c1ccc(CO)cc1, the cytotoxicity call [1] was “inactive” and the growth inhibition call [2] was “inactive”.
CN(C)CCCN1C(=O)[C@@H]2[C@@H](C1=O)[C@@H]1C=C[C@@H]2C1 was tested, and the cytotoxicity call [1] was “inactive” and the growth inhibition call [2] was “inactive”.
For Cc1ccc(S(=O)(=O)N(C)C[C@H]2Oc3ccc(NS(C)(=O)=O)cc3CC(=O)N([C@H](C)CO)C[C@@H]2C)cc1, the cytotoxicity call [1] was “inactive” and the growth inhibition call [2] was “inactive”.
For C[C@H]1CN([C@@H](C)CO)C(=O)Cc2cc(NC(=O)Nc3ccc(C(F)(F)F)cc3)ccc2O[C@@H]1CN(C)C(=O)NC1CCCCC1, the cytotoxicity call [1] was “inactive” and the growth inhibition call [2] was “inactive”.
With C[C@@H]1CCCCO[C@@H](CN(C)Cc2ccc(C(F)(F)F)cc2)[C@H](C)CN([C@@H](C)CO)C(=O)c2cc(NC(=O)c3ccccc3)ccc2O1 the cytotoxicity call [1] was “inactive” and the growth inhibition call [2] was “inactive”.
For NC(=O)NCC#Cc1ccc2c(c1)[C@]1(C(=O)N2)[C@H](C(=O)N2CCN(c3ncccn3)CC2)[C@H]2C(=O)O[C@H](c3ccccc3)[C@H](c3ccccc3)N2[C@@H]1c1ccccc1OCCO, the cytotoxicity call [1] was “inactive” and the growth inhibition call [2] was “inactive”.
For C[C@@H]1CN([C@H](C)CO)C(=O)Cc2cc(NC(=O)CCCCCC(=O)Nc3ccccc3N)ccc2O[C@H]1CN(C)Cc1ccccc1, the cytotoxicity call [1] was “inactive” and the growth inhibition call [2] was “inactive”.
C[C@@H]1CCCCO[C@@H](CN(C)C(=O)C2CCCCC2)[C@H](C)CN([C@H](C)CO)C(=O)c2cc(NS(=O)(=O)c3cccs3)ccc2O1 was tested, and the cytotoxicity call [1] was “inactive” and the growth inhibition call [2] was “inactive”.
For COc1ccc2c3c(n(c2c1)C)[C@@H](CO)N(C[C@]13CN(C1)S(=O)(=O)c1ccc(cc1)C)S(=O)(=O)c1ccc(cc1)C, the cytotoxicity call [1] was “inactive” and the growth inhibition call [2] was “inactive”.
With COc1ccc(CN(C)C[C@@H]2OCCCC[C@H](C)Oc3ccc(NS(=O)(=O)c4ccccc4)cc3C(=O)N([C@H](C)CO)C[C@H]2C)cc1 the cytotoxicity call [1] was “inactive” and the growth inhibition call [2] was “inactive”.
C=CCN1C(=O)[C@]2(O[C@H](CCO)[C@@H]([Si](C)(C)c3ccc(OC)cc3)[C@@H]2C)c2cc(NC(=O)[C@H](C)O)ccc21 was tested, and the cytotoxicity call [1] was “inactive” and the growth inhibition call [2] was “inactive”.
With COc1ccccc1CNC(=O)C[C@@H]1CC[C@H]2[C@@H](COC[C@H](O)CN2C(=O)Nc2ccc(F)cc2)O1 the cytotoxicity call [1] was “inactive” and the growth inhibition call [2] was “inactive”.
In the case of C[C@@H]1CN([C@@H](C)CO)C(=O)c2cc(NS(=O)(=O)c3cccs3)ccc2O[C@@H](C)CCCCO[C@H]1CN(C)Cc1ccc2c(c1)OCO2, the cytotoxicity call [1] is reported as “inactive” and the growth inhibition call [2] is reported as “inactive”.
For C[C@@H]1CCCCO[C@@H](CN(C)S(=O)(=O)c2ccc(F)cc2)[C@@H](C)CN([C@@H](C)CO)C(=O)c2cc(NC(=O)Nc3cccc4ccccc34)ccc2O1, the cytotoxicity call [1] was “inactive” and the growth inhibition call [2] was “inactive”.
C[C@@H]1CN([C@H](C)CO)C(=O)c2cc(C#Cc3cccc(F)c3)cnc2O[C@@H]1CN(C)C(=O)C1CCOCC1 was tested, and the cytotoxicity call [1] was “inactive” and the growth inhibition call [2] was “inactive”.
In the case of CC(C)[Si]1(C(C)C)O[C@@H](c2ccccc2)c2cc(C3CC3)nc(-c3ccc(Oc4ccccc4)cc3)c21, the cytotoxicity call [1] is reported as “inactive” and the growth inhibition call [2] is reported as “inactive”.
With O=C1CN(S(=O)(=O)Cc2ccccc2)C[C@@H]2[C@H](c3ccc(C#Cc4cccc(F)c4)cc3)[C@@H](CO)N12 the cytotoxicity call [1] was “inactive” and the growth inhibition call [2] was “inactive”.
For CN(CC(=O)NC1CCCC1)S(=O)(=O)c1ccc2c(c1)c(=O)n(C)c(=O)n2C, the cytotoxicity call [1] was “inactive” and the growth inhibition call [2] was “inactive”.
COc1cccc(NC(=O)N[C@@H]2CC[C@H](CC(=O)N3CCN(C)CC3)O[C@H]2CO)c1 was tested, and the cytotoxicity call [1] was “inactive” and the growth inhibition call [2] was “inactive”.
With C[C@@H]1CN([C@@H](C)CO)C(=O)c2cc(NC(=O)Nc3ccccc3)ccc2O[C@@H](C)CCCCO[C@H]1CN(C)CC1CCCCC1 the cytotoxicity call [1] was “inactive” and the growth inhibition call [2] was “inactive”.
CNC(=O)C(=O)NCCc1c[nH]c2ccccc12 was tested, and the cytotoxicity call [1] was “inactive” and the growth inhibition call [2] was “inactive”.
With CC[C@H](C(=O)N1CCCC[C@H]1C(=O)O[C@H](CCc1ccc(OC)c(OC)c1)c1cccc(OCC(=O)NCCNC(=O)COc2cccc([C@@H](CCc3ccc(OC)c(OC)c3)OC(=O)[C@@H]3CCCCN3C(=O)[C@@H](CC)c3cc(OC)c(OC)c(OC)c3)c2)c1)c1cc(OC)c(OC)c(OC)c1 the cytotoxicity call [1] was “inactive” and the growth inhibition call [2] was “inactive”.
C[C@H](CO)N1C[C@H](C)[C@H](CN(C)Cc2ccc(C(=O)Nc3ccccc3N)cc2)Oc2c(NS(C)(=O)=O)cccc2C1=O was tested, and the cytotoxicity call [1] was “inactive” and the growth inhibition call [2] was “inactive”.
With C[C@H]1CN([C@@H](C)CO)C(=O)Cc2cc(NC(=O)Nc3ccc(C(F)(F)F)cc3)ccc2O[C@@H]1CN(C)Cc1ccc(Oc2ccccc2)cc1 the cytotoxicity call [1] was “active” and the growth inhibition call [2] was “inactive”.
C[C@H]1CN([C@@H](C)CO)C(=O)c2cc(NC(=O)Nc3ccc(C(F)(F)F)cc3)ccc2O[C@H]1CN(C)S(=O)(=O)c1ccc(Cl)cc1 was tested, and the cytotoxicity call [1] was “inactive” and the growth inhibition call [2] was “inactive”.
With C[C@H]1CN([C@@H](C)CO)C(=O)c2cccc(NS(=O)(=O)c3ccc(Cl)cc3)c2O[C@H]1CN(C)Cc1ccc(C(=O)Nc2ccccc2N)cc1 the cytotoxicity call [1] was “inactive” and the growth inhibition call [2] was “inactive”.
C[C@@H]1CN([C@@H](C)CO)C(=O)c2cc(C#Cc3cccnc3)cnc2O[C@@H]1CN(C)Cc1ccc(F)cc1 was tested, and the cytotoxicity call [1] was “inactive” and the growth inhibition call [2] was “inactive”.
In the case of C[C@@H]1CN([C@H](C)CO)C(=O)c2cc(NC(=O)NC3CCCCC3)ccc2O[C@@H](C)CCCCO[C@@H]1CN(C)Cc1ccccc1, the cytotoxicity call [1] is reported as “inactive” and the growth inhibition call [2] is reported as “inactive”.
In the case of Cn1cnc(S(=O)(=O)N[C@@H]2C=C[C@@H](CC(=O)NCC3CC3)O[C@H]2CO)c1, the cytotoxicity call [1] is reported as “inactive” and the growth inhibition call [2] is reported as “inactive”.
In the case of Cc1ccc(S(=O)(=O)Nc2ccc3c(c2)C(=O)N([C@@H](C)CO)C[C@H](C)[C@H](CN(C)C(=O)NC2CCCCC2)OCCCC[C@H](C)O3)cc1, the cytotoxicity call [1] is reported as “inactive” and the growth inhibition call [2] is reported as “inactive”.
For O=C(C[C@@H]1C=C[C@H](NC(=O)c2cccc(F)c2)[C@H](CO)O1)NCCN1CCCC1, the cytotoxicity call [1] was “inactive” and the growth inhibition call [2] was “inactive”.
COc1ccc(S(=O)(=O)N(C)C[C@H]2Oc3c(cccc3N(C)C)C(=O)N([C@H](C)CO)C[C@@H]2C)cc1 was tested, and the cytotoxicity call [1] was “inactive” and the growth inhibition call [2] was “inactive”.
For C[C@H](CO)N1C[C@H](C)[C@@H](CN(C)Cc2ccc3c(c2)OCO3)OCc2ccccc2-c2c(n(C)c3ccccc23)C1=O, the cytotoxicity call [1] was “inactive” and the growth inhibition call [2] was “inactive”.
In the case of C[C@@H]1CN([C@@H](C)CO)C(=O)c2cc(NS(=O)(=O)c3ccc(Cl)cc3)ccc2O[C@@H](C)CCCCO[C@H]1CN(C)C(=O)C1CCCCC1, the cytotoxicity call [1] is reported as “inactive” and the growth inhibition call [2] is reported as “inactive”.
With C=CCC[C@H](Cc1ccc(F)cc1)C(=O)OC[C@@H]1CCCN1C(=O)[C@H](CC=C)CC(=O)N(CCO)Cc1ccccc1 the cytotoxicity call [1] was “inactive” and the growth inhibition call [2] was “inactive”.
For C[C@H](CO)N1C[C@H](C)[C@H](CN(C)C(=O)Nc2ccc(F)cc2)OCCCC[C@H](C)Oc2ccc(NC(=O)c3ccccc3)cc2C1=O, the cytotoxicity call [1] was “inactive” and the growth inhibition call [2] was “inactive”.
In the case of C[C@@H]1CCCCO[C@@H](CN(C)Cc2ccc(Cl)c(Cl)c2)[C@H](C)CN([C@H](C)CO)C(=O)c2cc(NC(=O)CCC(F)(F)F)ccc2O1, the cytotoxicity call [1] is reported as “inactive” and the growth inhibition call [2] is reported as “inactive”.
For C[C@H]1CN([C@@H](C)CO)C(=O)c2cc(NC(=O)Nc3ccc(F)cc3)ccc2O[C@H]1CN(C)C(=O)Nc1cccc2ccccc12, the cytotoxicity call [1] was “inactive” and the growth inhibition call [2] was “inactive”.
For COc1ccc2c3c([nH]c2c1)[C@H](CO)N(C[C@]13CN(Cc2ccccc2)C1)S(=O)(=O)c1cn(cn1)C, the cytotoxicity call [1] was “inactive” and the growth inhibition call [2] was “inactive”.
C[C@H]1CN([C@@H](C)CO)C(=O)c2c(c3ccccc3n2C)-c2ccccc2CO[C@@H]1CN(C)Cc1cccc(F)c1 was tested, and the cytotoxicity call [1] was “inactive” and the growth inhibition call [2] was “inactive”.

From the antibiotic and cytotoxicity screens of Wong et al. (2023)
